In publication PMC4604155:
No constants are given. Whether binding was seen depends on the method and setting. For some assays here: Binding seen in cells or lysates may run through a third protein. Some results given as binding are weak or reduced against the parent protein; the word gives no strength. For some assays here: Tags and fused reporters may be left off the sequences shown. One block for each molecule: values may come before it.

Protein sequences, listed by entry. Tags and fused reporters are not part of them.
UniProt P08670: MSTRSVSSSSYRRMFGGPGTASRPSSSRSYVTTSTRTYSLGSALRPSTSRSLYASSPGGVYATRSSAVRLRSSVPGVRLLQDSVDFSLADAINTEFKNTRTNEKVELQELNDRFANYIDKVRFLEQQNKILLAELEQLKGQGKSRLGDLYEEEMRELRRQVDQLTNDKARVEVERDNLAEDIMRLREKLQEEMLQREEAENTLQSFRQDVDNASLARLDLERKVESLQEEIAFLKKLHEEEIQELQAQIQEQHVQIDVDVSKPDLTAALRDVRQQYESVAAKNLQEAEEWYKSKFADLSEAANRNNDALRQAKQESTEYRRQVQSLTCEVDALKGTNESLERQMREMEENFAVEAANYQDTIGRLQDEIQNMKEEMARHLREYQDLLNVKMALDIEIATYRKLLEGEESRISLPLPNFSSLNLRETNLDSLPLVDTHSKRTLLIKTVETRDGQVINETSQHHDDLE
UniProt P15331: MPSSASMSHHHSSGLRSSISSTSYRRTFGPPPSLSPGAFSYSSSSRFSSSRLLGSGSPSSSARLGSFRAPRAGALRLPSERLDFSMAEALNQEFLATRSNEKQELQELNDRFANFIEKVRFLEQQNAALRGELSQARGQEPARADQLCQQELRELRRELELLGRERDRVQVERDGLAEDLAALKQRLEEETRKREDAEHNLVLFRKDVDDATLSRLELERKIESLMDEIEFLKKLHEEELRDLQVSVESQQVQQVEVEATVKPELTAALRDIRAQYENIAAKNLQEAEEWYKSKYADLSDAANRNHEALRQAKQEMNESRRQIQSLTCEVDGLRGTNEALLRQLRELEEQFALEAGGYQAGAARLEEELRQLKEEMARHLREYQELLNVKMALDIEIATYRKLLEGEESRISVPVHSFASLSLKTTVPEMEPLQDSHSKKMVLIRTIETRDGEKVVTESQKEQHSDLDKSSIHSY

How the values were obtained:
[1] = target: T1, FLAG-tagged full-length gigaxonin (GIG) (UniProt Q9H2C0); test: co-IP; lysates of HEK293 cells transfected with FLAG-GIG or FLAG-BTB, immunoprecipitated with anti-Flag beads or IgG; blot probed for VIM or PRPH
T1 sequence: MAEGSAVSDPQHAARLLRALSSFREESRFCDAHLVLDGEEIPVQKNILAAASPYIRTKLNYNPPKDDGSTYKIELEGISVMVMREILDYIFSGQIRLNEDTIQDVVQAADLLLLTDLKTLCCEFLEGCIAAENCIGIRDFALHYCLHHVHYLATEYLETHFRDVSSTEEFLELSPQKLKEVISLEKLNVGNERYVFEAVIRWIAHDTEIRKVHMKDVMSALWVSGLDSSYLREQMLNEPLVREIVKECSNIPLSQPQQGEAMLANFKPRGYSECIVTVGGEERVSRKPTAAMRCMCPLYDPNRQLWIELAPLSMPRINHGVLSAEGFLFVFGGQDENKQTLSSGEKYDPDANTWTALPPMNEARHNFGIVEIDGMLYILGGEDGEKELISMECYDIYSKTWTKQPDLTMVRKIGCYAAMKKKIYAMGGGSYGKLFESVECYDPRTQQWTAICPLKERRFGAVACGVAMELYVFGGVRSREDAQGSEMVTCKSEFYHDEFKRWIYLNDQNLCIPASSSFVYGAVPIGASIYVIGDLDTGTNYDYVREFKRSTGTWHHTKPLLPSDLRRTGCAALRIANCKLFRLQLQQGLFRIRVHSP

[2] = target: T2, truncated gigaxonin lacking the Kelch domain ("BTB" domain bait) (UniProt Q9H2C0); test: as above
T2 sequence: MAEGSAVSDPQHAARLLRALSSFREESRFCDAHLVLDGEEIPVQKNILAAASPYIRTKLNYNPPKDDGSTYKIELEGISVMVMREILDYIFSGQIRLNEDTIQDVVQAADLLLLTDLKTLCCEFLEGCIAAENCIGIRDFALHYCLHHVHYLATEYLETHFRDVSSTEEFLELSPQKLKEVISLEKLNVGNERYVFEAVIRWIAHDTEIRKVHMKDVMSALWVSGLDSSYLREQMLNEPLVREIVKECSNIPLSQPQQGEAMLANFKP

[3] = target: vimentin (VIM) (human (endogenous in HEK293)) (UniProt P08670); test: co-IP; endogenous VIM immunoprecipitated from HEK293 lysate with mouse anti-VIM antibody or control IgG; blot probed for endogenous GIG
[4] = target: T2, truncated gigaxonin lacking the Kelch domain ("BTB" domain bait); test: band of dimer size on gel after FLAG immunoprecipitation (anti-Flag Western blot, silver stain); Flag-tagged BTB expressed in HEK293 cells, affinity purified with anti-Flag antibody; band at ~70 kDa beside the ~34 kDa BTB band

binding [1]: binds
binding [2]: no binding
Molecule: vimentin (VIM) (from UniProt P08670 1-466)

binding [1]: binds
Molecule: mouse peripherin (PRPH), overexpressed (from UniProt P15331 1-475)

binding [3]: binds
B1: endogenous gigaxonin (GIG) (protein, UniProt Q9H2C0 1-597)
chain: MAEGSAVSDPQHAARLLRALSSFREESRFCDAHLVLDGEEIPVQKNILAAASPYIRTKLNYNPPKDDGSTYKIELEGISVMVMREILDYIFSGQIRLNEDTIQDVVQAADLLLLTDLKTLCCEFLEGCIAAENCIGIRDFALHYCLHHVHYLATEYLETHFRDVSSTEEFLELSPQKLKEVISLEKLNVGNERYVFEAVIRWIAHDTEIRKVHMKDVMSALWVSGLDSSYLREQMLNEPLVREIVKECSNIPLSQPQQGEAMLANFKPRGYSECIVTVGGEERVSRKPTAAMRCMCPLYDPNRQLWIELAPLSMPRINHGVLSAEGFLFVFGGQDENKQTLSSGEKYDPDANTWTALPPMNEARHNFGIVEIDGMLYILGGEDGEKELISMECYDIYSKTWTKQPDLTMVRKIGCYAAMKKKIYAMGGGSYGKLFESVECYDPRTQQWTAICPLKERRFGAVACGVAMELYVFGGVRSREDAQGSEMVTCKSEFYHDEFKRWIYLNDQNLCIPASSSFVYGAVPIGASIYVIGDLDTGTNYDYVREFKRSTGTWHHTKPLLPSDLRRTGCAALRIANCKLFRLQLQQGLFRIRVHSP

binding [4]: binds
B2: truncated gigaxonin lacking the Kelch domain ("BTB" domain bait) (domain or fragment, UniProt Q9H2C0 1-268)
chain: MAEGSAVSDPQHAARLLRALSSFREESRFCDAHLVLDGEEIPVQKNILAAASPYIRTKLNYNPPKDDGSTYKIELEGISVMVMREILDYIFSGQIRLNEDTIQDVVQAADLLLLTDLKTLCCEFLEGCIAAENCIGIRDFALHYCLHHVHYLATEYLETHFRDVSSTEEFLELSPQKLKEVISLEKLNVGNERYVFEAVIRWIAHDTEIRKVHMKDVMSALWVSGLDSSYLREQMLNEPLVREIVKECSNIPLSQPQQGEAMLANFKP
